Experimental findings from PMC4336329 (PLoS ONE, 2015) are described below.

Out of some 310,000 compounds screened, about 2,200 (0.71%) showed an effect of 50% or more. Effects have a minus sign here. Some of the results follow.

The target of this test is human ether-à-go-go-related gene (hERG) potassium channel (human, UniProt Q12809). Kind of test: primary screen, population patch clamp on CHO cells stably expressing hERG.
Sequence of human ether-à-go-go-related gene (hERG) potassium channel (Q12809 whole entry, looked up): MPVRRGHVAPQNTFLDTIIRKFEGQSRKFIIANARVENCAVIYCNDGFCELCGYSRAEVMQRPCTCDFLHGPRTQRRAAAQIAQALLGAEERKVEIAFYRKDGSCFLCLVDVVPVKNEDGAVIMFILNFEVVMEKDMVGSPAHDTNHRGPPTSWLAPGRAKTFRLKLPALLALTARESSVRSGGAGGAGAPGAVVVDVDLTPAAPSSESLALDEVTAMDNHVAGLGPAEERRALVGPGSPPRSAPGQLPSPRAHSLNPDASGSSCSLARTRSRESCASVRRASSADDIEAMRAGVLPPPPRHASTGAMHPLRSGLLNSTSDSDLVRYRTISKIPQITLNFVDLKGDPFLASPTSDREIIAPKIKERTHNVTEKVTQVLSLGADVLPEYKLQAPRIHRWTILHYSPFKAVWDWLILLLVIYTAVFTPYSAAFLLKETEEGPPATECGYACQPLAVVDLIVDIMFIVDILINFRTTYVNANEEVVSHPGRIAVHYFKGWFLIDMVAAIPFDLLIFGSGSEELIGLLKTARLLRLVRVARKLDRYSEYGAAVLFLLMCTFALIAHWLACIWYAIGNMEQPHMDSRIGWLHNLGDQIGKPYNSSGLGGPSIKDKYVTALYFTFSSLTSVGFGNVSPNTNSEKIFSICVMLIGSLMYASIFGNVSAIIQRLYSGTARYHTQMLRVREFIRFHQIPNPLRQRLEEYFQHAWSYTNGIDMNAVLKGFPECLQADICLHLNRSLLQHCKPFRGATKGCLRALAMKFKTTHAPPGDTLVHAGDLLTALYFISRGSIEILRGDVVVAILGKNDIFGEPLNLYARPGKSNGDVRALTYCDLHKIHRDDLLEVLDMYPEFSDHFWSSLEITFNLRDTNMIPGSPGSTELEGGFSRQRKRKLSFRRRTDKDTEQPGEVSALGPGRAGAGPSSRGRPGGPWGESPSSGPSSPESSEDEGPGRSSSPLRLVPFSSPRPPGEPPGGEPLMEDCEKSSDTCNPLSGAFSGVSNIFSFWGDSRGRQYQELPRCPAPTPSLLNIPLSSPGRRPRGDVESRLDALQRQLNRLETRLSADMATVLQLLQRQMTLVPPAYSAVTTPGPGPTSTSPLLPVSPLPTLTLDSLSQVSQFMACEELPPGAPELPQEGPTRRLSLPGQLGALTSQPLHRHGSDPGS
Regarding `Cc1cccnc1NC(=S)NC(=O)c1cccs1`, the “hERG current change (%, negative = inhibition) at 1uM” value is on record as -3.11%.
Under `CC(C)CC(C(=O)O)N1C(=O)C2C3CC(C2C1=O)C1C(c2ccccc2)c2sc(=O)[nH]c2SC31` (stereo not shown) stands 1.35%; under `COC(=O)c1cc(Br)ccc1OC(=O)c1cccnc1`, 14.1%.
Take `COc1ccc2nc(NCCCO)[nH]c2c1`: the “hERG current change (%, negative = inhibition) at 1uM” value is reported as 10.2%.
In the case of `COc1ccccc1NC(=O)NCc1nc(-c2ccc(C(F)(F)F)cc2)no1`, the “hERG current change (%, negative = inhibition) at 1uM” value is listed as 12%.
Under `CC(C)N1CCc2c(sc(NC(=O)c3cc(-c4cccs4)nc4ccccc34)c2C(N)=O)C1.Cl` stands 9.76%; under `CCn1c(SCC(=O)N/N=C/c2ccccc2OCC(=O)O)nnc1-c1ccc(C)cc1`, 9.72%; under `CCOc1cc(C2C3=C(CCCC3=O)N(CCC(=O)O)C3=C2C(=O)CCC3)ccc1OS(=O)(=O)c1ccc(C)cc1`, 8.39%.
Regarding `COc1cc(/C=N/NC(=O)c2cccc([N+](=O)[O-])c2)cc(OC)c1O`, the “hERG current change (%, negative = inhibition) at 1uM” value is -0.0577%.
With `O=C(c1ccccc1)c1ccc(-n2cnnc2)c([N+](=O)[O-])c1`, the “hERG current change (%, negative = inhibition) at 1uM” value is given as 9.68%.
In the case of `O=C1C(SCCO)=C(SCCO)C(=O)c2ccccc21`, the “hERG current change (%, negative = inhibition) at 1uM” value came to 16.2%.
Under `Cc1cccc2cc3c(nc12)SC(=NCC1CCCO1)N(Cc1ccco1)C3` (stereo not shown) stands 11%; under `O=C1N[C@@H](Cc2ccccc2)C(=O)N2[C@@H]3N(S(=O)(=O)c4ccccc4)c4ccccc4[C@]3(Br)C[C@@H]12`, 14.2%; under `O=C(O)c1cc(S(=O)(=O)NCCN2CCNC2=O)ccc1O`, 11.6%.
Under `CN(Cc1ccccc1)CC(O)COc1ccc(CNCc2ccc(Cl)s2)cc1` (stereo not shown) stands 3.39%; under `CCC(C)Nc1nc2c(C)cccn2c(=O)c1C=Nc1ccc(OC)cc1` (stereo not shown), 15.8%.
Under `COC(=O)COc1ccc(S(=O)(=O)NCc2ccccn2)cc1` stands 12.8%.
With `COc1ccc(C(CNC(=O)c2cccc(S(=O)(=O)N(C)c3ccccc3)c2)N2CCCC2)cc1` (stereo not shown), the “hERG current change (%, negative = inhibition) at 1uM” value is 1.81%.
Under `S=C(c1ccc(N2CCOCC2)cc1)N1CCCCC1` stands 21.9%.
As for `CC1(C)C2CCC1(CS(=O)(=O)NCc1ccc(Cl)cc1Cl)C(=O)C2` (stereo not shown), the figure is 2.7%; as for `COc1ccccc1CNCc1ccc(C)cc1.O=C(O)C(=O)O`, 10.8%; as for `O=C(/C=C/c1cccs1)c1ccc(NC(=O)c2ccccc2F)cc1`, -0.602%.
Consider `Clc1cccc(OCc2nc(-c3ccncc3)n[nH]2)c1`, for which the “hERG current change (%, negative = inhibition) at 1uM” value amounted to 8.22%.
As for `C[N+](C)(C)CCc1ccc(O)cc1.[I-]`, the figure is 12.3%; as for `Cc1cc(/C=N/NC(=O)c2cccnc2)c(C)n1CC(C)C`, 11.3%; as for `O=C(COC(=O)c1cc(S(=O)(=O)N2CCOCC2)cs1)c1ccccc1`, 3.65%.
Under `CC(C)c1ccc(NC(=S)NN2CCN(C)CC2)cc1` stands 14%; under `O=C1CCc2cc(S(=O)(=O)NC(Cc3ccccc3)C(=O)NC3CCCCC3)ccc2N1` (stereo not shown), -1.79%.
As for `COc1cccc(NC(=S)N(CCN2CCCCC2)Cc2ccco2)c1`, the figure is -5.59%; as for `COc1ccccc1OCc1ccc(C(=O)NCC2CCCO2)cc1` (stereo not shown), 8%.
In the case of `CC(C)CCNC(=O)c1cn(CC(C)C)c(=O)c2c1c1ccccc1n2C`, the “hERG current change (%, negative = inhibition) at 1uM” value turned out to be 13.3%.
In the case of `CN1CCOc2ccc(S(=O)(=O)NCCc3ccc(Cl)cc3)cc21`, the “hERG current change (%, negative = inhibition) at 1uM” value was 5.59%.
Under `CCC(=NCc1ccc2c(c1)OCO2)c1c(O)n(C)c(=O)n(C)c1=O` stands 13.9%.
As for `Cc1cccc(C(O)(C(=O)NNC(=O)CN2CCN(C)CC2)c2cccc(C)c2)c1`, the figure is 6.77%.
Regarding `COc1cccc(/C=N/N2CCN(C3c4ccccc4-c4ccccc43)CC2)c1O`, the “hERG current change (%, negative = inhibition) at 1uM” value amounted to 8.79%.
Consider `Cc1ccc(Oc2nc3ccccc3n3cccc23)cc1`, for which the “hERG current change (%, negative = inhibition) at 1uM” value is given as -5.8%.
Under `COC(=O)[C@@]12CCCCN1[C@H](c1ccc(SC3CCCCC3)cc1)[C@H]1C(=O)N(C)C(=O)[C@H]12.O=C(O)C(F)(F)F` stands 12.3%; under `Cc1ccsc1C(=O)N1CCN(S(=O)(=O)c2cccs2)CC1`, 7.51%; under `COC(=O)c1cc(OC)c(OC)cc1NC(=O)c1ccco1`, 7.42%.
On to `CC(NC1CCCC1)c1ccccc1` (stereo not shown), for which the “hERG current change (%, negative = inhibition) at 1uM” value is recorded as 8.7%.
As for `CC(OC(=O)CNC(=O)c1ccc(Cl)c(Cl)c1)C(=O)N1CCOCC1` (stereo not shown), the figure is 10.3%.
Regarding `CCN(CC)S(=O)(=O)c1ccc2c(c1)c(=O)c(C(=O)NCCCN(C)c1ccccc1)cn2C`, the “hERG current change (%, negative = inhibition) at 1uM” value was 3.22%.
As for `Cc1nc2ccc(C(C(F)(F)F)(C(F)(F)F)C(F)(F)F)cc2[nH]1`, the figure is 7.08%; as for `O=C(Cc1ccc2ccccc2c1)Nc1ccccc1Br`, 13.8%.
As for `COc1cc(NC(=O)c2ccc([N+](=O)[O-])o2)ccc1NC(=O)c1cccs1`, the figure is -19.8%; as for `CN(C)C(=O)CSc1cccc2cccnc12`, 7.68%.
As for `CCC(C)NC(=O)CCc1nc2ccccc2n1-c1ccccc1` (stereo not shown), the figure is 10.4%; as for `CCN(c1cccc(C)c1)S(=O)(=O)c1ccc2c(c1)CCN2C(C)=O`, 0.688%; as for `C=CCN1C(=O)c2ccc(C(=O)OCC(=O)N(C)C3CCCCC3)cc2C1=O`, 6.46%.
Turning to `Cc1cc(CNC(=O)COc2ccc(F)cc2F)c2ccccc2n1`, the “hERG current change (%, negative = inhibition) at 1uM” value was -6.42%.
As for `COc1ccccc1CNC(=O)C(NS(=O)(=O)c1ccc2c(c1)oc(=O)n2C)C(C)C` (stereo not shown), the figure is 4.06%; as for `COc1ccccc1N1CCN(C(=O)COc2cc(C)cc(C)c2)CC1`, 20.7%.
With `Cc1cc(F)ccc1NC(=O)CCCN(C)S(=O)(=O)c1ccc(F)cc1`, the “hERG current change (%, negative = inhibition) at 1uM” value was 7.23%.
Under `CCC1(CCc2ccncc2)C(=O)NC(=O)NC1=O` stands 1.32%; under `COc1ccccc1C(c1nnnn1CC1CCCO1)N1CCN(c2ccccc2)CC1` (stereo not shown), 12.8%.
